Experimental data as given in PubChem BioAssay (NCATS).
The shares of active, inactive and inconclusive entries below differ from those in the screen. No potency is given beside an inconclusive call; the fits are too rough. Active and inactive are the calls of the source. Calls come from the whole dose curve; as a rule, active = well fitted curve in the direction sought with a large enough effect; inconclusive = small, poorly fitted or top-dose-only effect, or another doubt; inactive = no such curve, though single readings can be large; an effect the other way counts as inactive or inconclusive.

Columns and labels:
[1] = BET inhibitor-based combinations targeting novel dependencies in MECOM-rearranged (r) AML: OCI-AML3 cell line (AID 2202232); conditions: CellTiter-Glo luminescence, 48 h; Potency: OCI-AML3 viability; viability (% of control): at 46 µM (top of the series); note: nearly all actives have a fitted effect of over 35% in size;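 for viability (% of control): plate controls were DMSO vehicle wells for no effect and wells without cells for full effect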
In short: (§1)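 500 cells/well; 11-pt dose curve; 48 h, standard incubator; CellTiter-Glo luminescence after 15 min RT; DMSO/empty-well normalization; AUC plus Z-AUC (mean-centered within each line).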

[2] = BET inhibitor-based combinations targeting novel dependencies in MECOM-rearranged (r) AML: MV-4-11 cell line (AID 2202233); conditions: MV-4-11 AML viability, CellTiter-Glo luminescence, 48 h; viability, % of control: at 46 µM (top of the series) unless noted; note: nearly all actives have a fitted effect of over 45% in size;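 for viability, % of control: plate controls were DMSO for no effect and blank wells for full effect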
In short: (§2)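 Cells were plated at 500 per well and exposed to each drug across an 11-point dose range for 48 hr at standard incubator conditions. Viability was read by CellTiter-Glo luminescence, and activity was expressed as AUC and per-cell-line Z-transformed AUC.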

[3] = BET inhibitor-based combinations targeting novel dependencies in MECOM-rearranged (r) AML: HNT-34 cell line (AID 2202234); conditions: HNT-34 AML viability, CellTiter-Glo luminescence, 48 h; series mostly up to 46 µM; note: nearly all actives have a fitted effect of over 35% in size;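 for viability (% of control): plate controls were vehicle wells for no effect and cell-free wells for full effect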
In short: as §2

[4] = BET inhibitor-based combinations targeting novel dependencies in MECOM-rearranged (r) AML: UCSD-AML1 cell line (AID 2202235); conditions: UCSD-AML1 AML cells viability, CellTiter-Glo, 48 h; viability (% of control): at 46 µM (top of the series); note: nearly all actives have a fitted effect of over 40% in size;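 for viability (% of control): plate controls were DMSO vehicle wells for no effect and blank wells for full effect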
In short: as §2

[5] = BET inhibitor-based combinations targeting novel dependencies in MECOM-rearranged (r) AML: AML-191 cell line (AID 2202236; note: nearly all actives have a fitted effect of over 35% in size;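 for viability (% of control): plate controls were vehicle wells for no effect and wells without cells for full effect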); conditions: AML-191 viability, CellTiter-Glo luminescence, 48 h; series mostly up to 46 µM
In short: as §1

[6] = BET inhibitor-based combinations targeting novel dependencies in MECOM-rearranged (r) AML: AML-194 cell line (AID 2202237; note: nearly all actives have a fitted effect of over 40% in size;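 for viability (% of control): plate controls were vehicle wells for no effect and wells without cells for full effect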); conditions: AML-194 (MECOM-r AML) viability, CellTiter-Glo, 48 h; series mostly up to 46 µM
In short: as §1
Potency is the fitted concentration of half-maximal effect; tags give direction and shape of the fitted curve.

| SMILES | Potency [1] | Potency [2] | Potency [3] | Potency [4] | Potency [5] | Potency [6] | viability, % of control [2] |
| --- | --- | --- | --- | --- | --- | --- | --- |
| C[C@@H]1CN(CC(=O)N2CC(C)(C)c3ncc(Cc4ccc(F)cc4)cc32)[C@@H](CN2CCOC[C@H]2C)CN1 | inconclusive [inhibitor, partial curve] | inconclusive [inhibitor, partial curve] | inconclusive [inhibitor, partial curve, poor fit] | inconclusive [inhibitor, partial curve] | inconclusive [inhibitor, partial curve] |  |  |
| CC(=O)NC(C)c1ccc(Oc2ccc(OC(C)C)cc2)cc1 (centres undefined) | inconclusive [inhibitor, partial curve] | inconclusive [inhibitor, partial curve] | inconclusive [inhibitor, partial curve] | inconclusive [inhibitor, single point] | inconclusive [inhibitor, partial curve] | inconclusive [inhibitor, partial curve] |  |
| C=CC(=O)N[C@H]1CN(c2nc(Nc3cn(C)nc3OC)c3ncn(C)c3n2)C[C@@H]1F | inconclusive [inhibitor, partial curve] | inconclusive [inhibitor, partial curve, poor fit] | inactive | inconclusive [inhibitor, single point] | inconclusive [inhibitor, single point] | inconclusive [inhibitor, partial curve] |  |
| O=c1ncccn1[C@@H]1O[C@H](CO)[C@@H](O)[C@H]1O | inconclusive [inhibitor, partial curve, poor fit] | inconclusive [inhibitor, partial curve] |  | inconclusive [inhibitor, single point] |  |  |  |
| CCCc1nc(C(C)(C)O)c(C(=O)O)n1Cc1ccc(-c2ccccc2-c2nn[nH]n2)cc1 | inactive | inactive |  | inactive |  |  |  |
| COc1nnc2ccc(N3CCC(c4ccc(OCCN5CCN(C)C(=O)[C@H]5C)cc4)CC3)nn12 | active: 0.0417 µM | active: 0.059 µM |  | inconclusive [inhibitor, full curve] |  | inconclusive [inhibitor, full curve] |  |
| COc1ccc2c(OCc3nnc4ccc(-c5ccccc5)nn34)ccnc2c1 | inactive | inactive | inactive |  |  | inactive |  |
| CCC(=O)O[C@]1(C(=O)CO)CC[C@H]2[C@@H]3CCC4=CC(=O)CC[C@]4(C)[C@H]3CC[C@@]21C | inactive | inactive | inconclusive [inhibitor, partial curve, poor fit] |  | inconclusive [inhibitor, full curve, poor fit] |  |  |
| O=C(Nc1ccc(S(=O)(=O)N2CCOCC2)cc1)c1cc(Cl)ccc1NS(=O)(=O)c1ccc(Cl)s1 | inactive | inactive | inconclusive [inhibitor, partial curve, poor fit] |  | inconclusive [inhibitor, single point] | inactive |  |
| CC(C)(Sc1ccc(CCN(CCCCC2CCCCC2)C(=O)NC2CCCCC2)cc1)C(=O)O | inconclusive [inhibitor, partial curve, poor fit] | inactive |  | inactive |  |  |  |
| Cc1cc(O)c2c(c1)C(=O)c1cccc(O)c1C2=O | inconclusive [inhibitor, partial curve, poor fit] | inactive | inactive |  |  | inactive |  |
| NS(=O)(=O)c1ccc(Cc2c(-c3cccc(-c4ccccc4)c3)nn(-c3nc(C(=O)O)cs3)c2CC2CC2)cc1 | inconclusive [inhibitor, full curve] |  |  | inactive |  |  | inconclusive: 44.2% [inhibitor] |
| Cc1nc(NC(=O)N2CCC[C@H]2C(N)=O)sc1-c1csc(C(C)(C)C)n1 | inconclusive [inhibitor, partial curve] | inconclusive [inhibitor, partial curve, poor fit] |  | inconclusive [inhibitor, full curve, poor fit] |  | inconclusive [inhibitor, partial curve, poor fit] |  |
| CO[C@@]12[C@H](COC(N)=O)C3=C(C(=O)C(C)=C(N)C3=O)N1C[C@@H]1N[C@@H]12 | inactive | inconclusive [inhibitor, partial curve, poor fit] | inactive |  |  | inactive |  |
| C[C@]12CCC3[C@@H](CC[C@H]4NC(=O)C=C[C@]34C)[C@@H]1CC[C@@H]2C(=O)Nc1cc(C(F)(F)F)ccc1C(F)(F)F (some centres undefined) | inactive | inactive |  | inconclusive [inhibitor, single point] |  |  |  |
| Cc1cc(O)c(-c2ccc([C@@H](C)CN)cc2)c2c1[nH]c(=O)c1sccc12 | inconclusive [inhibitor, full curve, poor fit] | inconclusive [inhibitor, full curve, poor fit] | active: 0.0417 µM |  | active: 0.0833 µM | inconclusive [inhibitor, full curve] |  |
| O=C(c1ccc(NS(=O)(=O)c2cccc3cccnc23)cc1)N1CCN(CC2CC2)CC1 | inactive | inactive |  | inactive |  |  |  |
| O=C(N[C@@H](c1ccccc1)[C@@H]1CCCCN1)c1cccc(C(F)(F)F)c1Cl | inconclusive [inhibitor, single point] | inconclusive [inhibitor, single point] |  | inconclusive [inhibitor, single point] | inconclusive [inhibitor, partial curve, poor fit] | inconclusive [inhibitor, single point] |  |
| O=C(C1CC1)N1CC[C@@H](Cc2n[nH]c(=O)n2-c2ccc(-c3ccc4occc4c3)cc2)C1 | inconclusive [inhibitor, full curve, poor fit] | inconclusive [inhibitor, full curve, poor fit] | inconclusive [inhibitor, single point] |  | inactive | inactive |  |
| CCN(c1ccccc1)c1cc(NC)[n+](C)c(C)n1 | inconclusive [inhibitor, full curve, poor fit] | inactive |  | inactive |  |  |  |
| Cc1ccc2cc(-c3c(C)ccc(C(=O)c4c(-c5ccccc5)n(C)n(-c5ccccc5)c4=O)c3N)ccc2n1 | inconclusive [inhibitor, full curve, poor fit] | inactive | inconclusive [inhibitor, full curve] |  |  | inactive |  |
| OC1CCC([C@H](O)C[C@H]2c3c(F)cccc3-c3cncn32)CC1 (some centres undefined) | inactive | inactive | inactive |  |  | inactive |  |
| CCN(c1cc(-c2ccc(CN3CCOCC3)cc2)cc(C(=O)NCc2c(C)cc(C)[nH]c2=O)c1C)C1CCOCC1 | inconclusive [inhibitor, partial curve, poor fit] | inconclusive [inhibitor, partial curve, poor fit] | inactive |  | inactive |  |  |
| C[C@H](CCC(=O)O)[C@H]1CCC2C3C[C@H](O)[C@@H]4C[C@H](O)CC[C@]4(C)C3CC[C@@]21C (some centres undefined) | inconclusive [inhibitor, single point] | inactive | inactive |  | inactive |  |  |
| COc1cc2nc(-c3ccc(N4CCN(C)CC4)cc3)nc(NCCN3CCOCC3)c2cc1OC | inconclusive [inhibitor, full curve, poor fit] | active: 2.35 µM |  | active: 4.68 µM |  |  |  |
| CCC(c1ccc(O)cc1)C(CC)c1ccc(O)cc1 (centres undefined) | inconclusive [inhibitor, full curve, poor fit] | inconclusive [inhibitor, single point] | inactive |  | inconclusive [inhibitor, partial curve] | inconclusive [inhibitor, partial curve, poor fit] |  |
| O=c1[nH]nc(Sc2ncc([N+](=O)[O-])s2)n1-c1ccc2c(c1)OCCO2 | active: 2.95 µM | active: 1.86 µM | active: 3.32 µM |  |  | active: 7.42 µM |  |
| COc1nc(-c2ccc3c(c2)OCO3)n(-c2ccc(NC(=O)CSc3ccccc3)cc2)n1 | inconclusive [inhibitor, partial curve, poor fit] | inconclusive [inhibitor, single point] | inconclusive [inhibitor, partial curve, poor fit] |  |  | inactive |  |
| CNC(=O)Cn1cc(-c2ccc3c(c2)C(F)CC32NC(=O)N(CC(=O)N(Cc3ccc(F)cc3)C(C)C(F)(F)F)C2=O)cn1 (centres undefined) | inconclusive [inhibitor, full curve] | inconclusive [inhibitor, full curve] | active: 0.0833 µM |  | inconclusive [inhibitor, full curve] | inconclusive [inhibitor, full curve] |  |
